The values that follow come from PMC4336329 (PLoS ONE, 2015).

The whole screen tested about 310,000 compounds, of which about 2,200 (0.71%) showed an effect of 50% or more. Effects have a minus sign here. The list shows a part of the results.

In this assay the target is human ether-à-go-go-related gene (hERG) potassium channel (human, UniProt Q12809). Briefly: primary screen, population patch clamp on CHO cells stably expressing hERG.
Sequence of human ether-à-go-go-related gene (hERG) potassium channel (Q12809 whole entry, looked up): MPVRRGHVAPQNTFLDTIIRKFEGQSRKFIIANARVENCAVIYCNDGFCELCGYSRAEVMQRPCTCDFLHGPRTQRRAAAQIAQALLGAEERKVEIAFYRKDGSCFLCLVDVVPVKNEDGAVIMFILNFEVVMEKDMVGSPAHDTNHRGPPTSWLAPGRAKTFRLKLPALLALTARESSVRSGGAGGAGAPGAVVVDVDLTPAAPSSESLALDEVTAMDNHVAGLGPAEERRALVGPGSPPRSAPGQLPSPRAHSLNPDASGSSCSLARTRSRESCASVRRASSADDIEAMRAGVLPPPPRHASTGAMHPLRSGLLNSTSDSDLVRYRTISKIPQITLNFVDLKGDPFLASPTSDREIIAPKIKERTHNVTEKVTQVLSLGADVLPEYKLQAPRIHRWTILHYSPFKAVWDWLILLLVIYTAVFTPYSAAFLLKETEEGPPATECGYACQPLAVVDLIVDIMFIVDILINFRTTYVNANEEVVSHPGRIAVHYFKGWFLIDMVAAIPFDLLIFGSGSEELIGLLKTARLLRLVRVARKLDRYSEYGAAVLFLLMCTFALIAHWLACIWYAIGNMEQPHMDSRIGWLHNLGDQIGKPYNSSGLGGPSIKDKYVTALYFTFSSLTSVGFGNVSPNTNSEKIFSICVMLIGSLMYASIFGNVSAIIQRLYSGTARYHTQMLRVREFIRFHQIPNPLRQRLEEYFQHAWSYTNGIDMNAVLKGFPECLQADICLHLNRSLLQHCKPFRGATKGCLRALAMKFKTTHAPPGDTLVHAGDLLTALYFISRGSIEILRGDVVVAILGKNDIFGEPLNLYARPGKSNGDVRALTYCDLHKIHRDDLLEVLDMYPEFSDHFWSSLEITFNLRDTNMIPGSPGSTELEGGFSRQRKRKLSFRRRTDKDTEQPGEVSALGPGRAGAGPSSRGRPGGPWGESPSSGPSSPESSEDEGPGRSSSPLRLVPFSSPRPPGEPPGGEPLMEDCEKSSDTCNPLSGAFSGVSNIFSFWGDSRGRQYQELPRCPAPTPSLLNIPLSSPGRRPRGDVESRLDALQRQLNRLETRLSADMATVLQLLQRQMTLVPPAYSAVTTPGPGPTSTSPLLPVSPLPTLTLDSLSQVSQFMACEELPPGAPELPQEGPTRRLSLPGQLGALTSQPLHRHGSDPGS
Regarding `Cc1ccc(OCC(=O)Nc2cc(C(C)(C)C)on2)cc1C`, the “hERG current change (%, negative = inhibition) at 1uM” value turned out to be 7.5%. Take `CN1CCN(Cc2nc(Cc3cccc(F)c3)no2)CC1c1ccccc1` (stereo not shown): the “hERG current change (%, negative = inhibition) at 1uM” value is 1.01%. Take `O=C(NNC(=O)C1CC1)c1ccc(-c2ccccc2)cc1`: the “hERG current change (%, negative = inhibition) at 1uM” value amounted to 6.86%.

In the case of `COc1cccc(N2CCN(C(=O)CCS(=O)(=O)c3ccc4c(c3)oc(=O)n4C)CC2)c1`, the “hERG current change (%, negative = inhibition) at 1uM” value came out at 13.5%. To `Cn1c(=O)c2c(nc(CO)n2C)n(C)c1=O` belongs 17.1%; to `OC(CNCC1CCCO1)COc1ccc(OCC(O)CNCC2CCCO2)cc1` (stereo not shown), 7.73%. To `CC(Oc1ccc(Cl)cc1Cl)C(=O)Nc1ccc(O)cc1` (stereo not shown) belongs 5.61%; to `CCOC(=O)c1sc2nc(C(C)C)c3c(c2c1N)CC(C)(C)OC3`, 4.56%; to `COc1ccc(-c2csc(NC(C)c3nc4cc(Cl)c(N5CCCCC5)cc4n3CCOCCO)n2)cc1` (stereo not shown), 10.6%. To `Cc1cc(Br)ccc1NC(=O)c1sc2ncnc(N3CCN(c4ccccn4)CC3)c2c1C` belongs -1.45%; to `O=c1c2c(ncn1CCO)nc1n2CCC1`, 13.5%; to `O=C(NNC(=O)C1CCN(S(=O)(=O)c2ccc(Cl)cc2)CC1)c1ccc(S(=O)(=O)N2CCCCC2)cc1`, 2.65%. With `COc1cccc(OCC(=O)NNC(=O)c2cnccn2)c1`, the “hERG current change (%, negative = inhibition) at 1uM” value is 15.2%. In the case of `C=CCc1c(C)nc2cc(-c3ccccc3)[nH]n2c1=O` it was 8.22%; in that of `c1ccc(-c2noc(CSc3nc4ccccc4o3)n2)cc1`, -1.26%; in that of `c1ccc2c(-n3cccn3)cccc2c1`, 5.7%. In the case of `CCOC(=O)N1CCN(C(=O)C2CCC(=O)N(Cc3cccc(C(F)(F)F)c3)C2)CC1` (stereo not shown) it was 9.92%; in that of `CCOC(=O)Cn1c(Br)nc2c1c(=O)[nH]c(=O)n2C`, -15.5%; in that of `Cc1ccc(-c2cc(C(=O)N3CCN(c4ccccc4O)CC3)c3ccccc3n2)cc1`, 14.6%. On to `COc1ccc(C2c3c(ncn(CCN4CCOCC4)c3=N)Oc3ccc4ccccc4c32)cc1` (stereo not shown), for which the “hERG current change (%, negative = inhibition) at 1uM” value is recorded as -3.2%.

As to `COc1ccc(C2C(C#N)=C(N)N(c3sc4c(c3C#N)CCCC4)C3=C2C(=O)CC(C)(C)C3)cc1OC` (stereo not shown), the “hERG current change (%, negative = inhibition) at 1uM” value was determined as 12.7%. On to `CCOCCCNC(=O)C(NC(=O)C1CCC(=O)N1)c1ccc(C)cc1` (stereo not shown), for which the “hERG current change (%, negative = inhibition) at 1uM” value was 6.89%.

With `O=C(CCN1C(=O)C2C3CCC(C3)C2C1=O)Nc1ccccc1Cl` (stereo not shown), the “hERG current change (%, negative = inhibition) at 1uM” value came out at 9.42%. To `COc1cc(/C=C(\NC(=O)c2ccccc2)C(=O)N2CC3CC(C2)c2cccc(=O)n2C3)cc(OC)c1OC` (stereo not shown) belongs 14.1%; to `CN(C)c1ccc(N=Nc2ccccc2C(=O)OCC(=O)N2CCCCCC2)cc1`, 7.35%.

Regarding `O=C(Nc1ccc(Br)cn1)C1CCCN1S(=O)(=O)c1ccccc1` (stereo not shown), the “hERG current change (%, negative = inhibition) at 1uM” value was -1.37%. In the case of `O=C(NC(NC(=S)Nc1ccccc1C(=O)O)C(Cl)(Cl)Cl)c1ccccc1` (stereo not shown), the “hERG current change (%, negative = inhibition) at 1uM” value is given as 4.84%.

Take `CCOC(=O)c1c(NC(=O)CN2C(=O)NC3(CCC(C)CC3)C2=O)sc(C)c1CC` (stereo not shown): the “hERG current change (%, negative = inhibition) at 1uM” value is recorded as 6.67%.

Consider `CC(=O)c1cccc(NC(=O)CSC(=O)c2ccccc2)c1`, for which the “hERG current change (%, negative = inhibition) at 1uM” value is reported as 9.57%. As to `Cc1ccc(N2CC(C(=O)N/N=C/c3c(F)cccc3Cl)CC2=O)cc1` (stereo not shown), the “hERG current change (%, negative = inhibition) at 1uM” value worked out at 0.61%.

On to `CN(C/C=C/c1ccccc1)Cc1cccc2ccccc12.Cl`, for which the “hERG current change (%, negative = inhibition) at 1uM” value worked out at 5.76%. For the compound `O=C(NCc1nnc2c3ccccc3c(-c3ccccc3)nn12)c1ccc(Cl)cc1`, the “hERG current change (%, negative = inhibition) at 1uM” value came to 0.471%. For `COc1ccc(-n2c(SCC(=O)O)nc3sc4c(c3c2=O)CCCC4)cc1`, the “hERG current change (%, negative = inhibition) at 1uM” value is 12.7%. For the compound `O=S(=O)(NCCC1=CCCCC1)c1c(Cl)cccc1Cl`, the “hERG current change (%, negative = inhibition) at 1uM” value came out at 13.6%. Consider `Fc1ccccc1N1CCN(C2CCCN(Cc3ccccc3C(F)(F)F)C2)CC1` (stereo not shown), for which the “hERG current change (%, negative = inhibition) at 1uM” value was found to be 16.7%. To `Cc1cc(NC(=O)Nc2cccc3ccccc23)no1` belongs 14.1%. To `CC(=O)Nc1ccc(S(=O)(=O)NC(CC(=O)N2CCC3(CC2)OCCO3)C(C)C)cc1` (stereo not shown) belongs 14.7%; to `Cc1nn(CC(=O)Nc2ccc3c(c2)nc(CN2CCCC2)n3C)c(=O)c2ccccc12`, 10.2%.

For `COc1ccc(CCNC(=O)CSC2=NS(=O)(=O)c3ccccc3N2)cc1OC`, the “hERG current change (%, negative = inhibition) at 1uM” value was determined as 3.89%.

Consider `CC(=O)Nc1ccccc1C(=O)C(=O)Nc1ccc(F)cc1`, for which the “hERG current change (%, negative = inhibition) at 1uM” value was determined as 1.95%. In the case of `O=C(Nn1cnnc1)c1cc2cc(Br)ccc2oc1=O` it was 1.13%; in that of `CCOC(=O)C1=C(c2cccc(Oc3ccccc3)c2)NC(=S)NC1C` (stereo not shown), 4.25%; in that of `O=C(NCc1ccco1)c1csc(Nc2ccccc2Cl)n1`, 0.399%. To `O=C(Oc1cccc2ccccc12)c1ccncc1` belongs 12.5%.

In the case of `Cc1ccc(C(=O)C2CCN(S(=O)(=O)c3ccc(C(=O)O)cc3)CC2)cc1`, the “hERG current change (%, negative = inhibition) at 1uM” value turned out to be 10.7%.

Take `COc1c(C(C)C)oc2cc3oc(=O)ccc3cc12`: the “hERG current change (%, negative = inhibition) at 1uM” value is 10.9%. Consider `CN(CC1CCCN(CCc2cccc(C(F)(F)F)c2)C1)C(=O)c1ccc2nc[nH]c2c1` (stereo not shown), for which the “hERG current change (%, negative = inhibition) at 1uM” value worked out at 5.78%.

For the compound `CCOc1ccc(C(=O)N(Cc2ccccc2)c2cccc(C)c2)cc1OC`, the “hERG current change (%, negative = inhibition) at 1uM” value is 9.72%.

In the case of `O=S(=O)(c1ccc(F)cc1)N1CC2CCCN2c2ccc(C(F)(F)F)cc21` (stereo not shown), the “hERG current change (%, negative = inhibition) at 1uM” value is given as 12.6%. To `CCOC(=O)CCn1c(CC(=O)OCC)nc2ccccc21.Cl.O` belongs -7.12%; to `CC(=O)c1cccc(S(=O)(=O)N2CCC(C(=O)O)CC2)c1`, 17.5%. Turning to `CCCc1cc(C(=O)Cc2ccc(F)cc2)c(O)cc1O`, the “hERG current change (%, negative = inhibition) at 1uM” value is recorded as 7.88%.

In the case of `Cc1ccc(NC(=O)c2c3c(nc4ccccc24)CCC3)cc1S(=O)(=O)N(C)C`, the “hERG current change (%, negative = inhibition) at 1uM” value worked out at 15.6%. To `CCN(CC)c1ccc(C(=O)Nn2c(C)nc3ccccc3c2=O)cc1` belongs 11.5%. For the compound `CCC(=O)c1c[nH]c(C(=O)NCc2cccc(C(F)(F)F)c2)c1`, the “hERG current change (%, negative = inhibition) at 1uM” value is reported as 8.4%.
